Molecules are shown by their SMILES. Some of the results follow.

The first assay has as its system HepG2. Kind of assay: cytotoxicity call (relative viability < 0.9). Conditions: 10 µM.
For the compound `C=CCOC(=O)[C@@H]1[C@H]2C(=O)O[C@H](c3ccccc3)[C@H](c3ccccc3)N2[C@H](c2ccc(OCCOC(=O)[C@H]3C[C@H]4C(=O)N[C@@H](CC(C)C)C(=O)N4[C@H]3c3ccc(O)cc3)cc2)[C@@]12C(=O)Nc1ccc(I)cc12`, the cytotoxicity call is “inactive”.

With `C[C@@H]1CN([C@H](C)CO)C(=O)Cc2cc(NC(=O)Nc3ccc(C(F)(F)F)cc3)ccc2O[C@@H]1CN(C)S(C)(=O)=O`, the cytotoxicity call was “inactive”.

Take `COc1cc2c(cc1OC)CN(C(=O)[C@@H]1[C@H]3C(=O)O[C@H](c4ccccc4)[C@H](c4ccccc4)N3[C@H](c3ccccc3OCCO)[C@@]13C(=O)Nc1ccc(C#CC4(O)CCCCCC4)cc13)CC2`: the cytotoxicity call is “inactive”.

Turning to `C[C@@H]1CCCCO[C@H](CN(C)C(=O)Nc2ccccc2)[C@@H](C)CN([C@H](C)CO)C(=O)c2cc(NC(=O)Nc3cccc4ccccc34)ccc2O1`, the cytotoxicity call was “inactive”.

On to `Cc1noc(C)c1S(=O)(=O)Nc1ccc2c(c1)CC(=O)N([C@H](C)CO)C[C@H](C)[C@@H](CN(C)S(=O)(=O)c1c(C)noc1C)O2`, for which the cytotoxicity call is “inactive”.

`C[C@@H]1CN([C@H](C)CO)C(=O)c2cc(/C=C/c3ccccc3)cnc2O[C@@H]1CN(C)C(=O)C1CCOCC1`: the cytotoxicity call was “inactive”.

For the compound `COc1cc2c3cc1Oc1cc(ccc1O)O[C@H]1c4c(cc(OC)c(O)c4Oc4ccc(cc4)C[C@@H]3N(C)CC2)CCN1C`, the cytotoxicity call was “inactive”.

As to `CCCOc1ccc(S(=O)(=O)N2CCN(CCO)CC2)cc1-c1nc2c(CCC)cn(CC)c2c(=O)[nH]1`, the cytotoxicity call is “inactive”.

As for `C[C@H](CO)N1C[C@H](C)[C@H](CN(C)Cc2ccccc2)Oc2ccc(NC(=O)Cn3cnnn3)cc2CC1=O`, the cytotoxicity call is “inactive”.

The subject of another assay is S. aureus RN4220. Put plainly: growth inhibition call (relative growth <= 0.2). The conditions noted are these: 50 µM.
Consider `CCCOC(=S)N[C@H]1OC[C@@H](O)[C@@H](O)[C@@H]1O`, for which the growth inhibition call is “inactive”.

Consider `C[C@@H]1CN([C@@H](C)CO)C(=O)CCCn2nncc2CO[C@H]1CN(C)C(=O)Nc1ccc2c(c1)OCO2`, for which the growth inhibition call was “inactive”.

In the case of `CS(=O)(=O)N1CCC2(CC1)OCCO2`, the growth inhibition call is “inactive”.

On to `CN1C(=S)N[C@@H]2CS(=O)(=O)C[C@@H]21`, for which the growth inhibition call is “inactive”.

Regarding `COc1ccc(NC(=O)N(C)C[C@H]2OCCCC[C@@H](C)Oc3ccc(NC(=O)Cc4ccccc4)cc3C(=O)N([C@@H](C)CO)C[C@H]2C)cc1`, the growth inhibition call is “inactive”.

`C[C@H](CO)N1C[C@H](C)[C@@H](CN(C)S(=O)(=O)c2ccccc2)OCCCC[C@H](C)Oc2ccc(NS(=O)(=O)c3cn(C)cn3)cc2C1=O`: the growth inhibition call is “inactive”.

Take `Cc1ccc(S(=O)(=O)Nc2ccc3c(c2)C(=O)N([C@H](C)CO)C[C@@H](C)[C@@H](CN(C)S(=O)(=O)c2cn(C)cn2)O3)cc1`: the growth inhibition call is “inactive”.

For the compound `C[C@@H]1CN([C@H](C)CO)C(=O)c2cc(NC(=O)C3CC3)ccc2O[C@H]1CN(C)S(=O)(=O)c1cn(C)cn1`, the growth inhibition call is “inactive”.

Take `C[C@@H]1CN([C@H](C)CO)C(=O)c2cc(NC(=O)Nc3ccc(F)cc3)ccc2O[C@@H](C)CCCCO[C@H]1CN(C)C(=O)C1CCCCC1`: the growth inhibition call is “inactive”.

With `COc1ccc(S(=O)(=O)Nc2ccc3c(c2)C(=O)N([C@H](C)CO)C[C@H](C)[C@H](CN(C)Cc2ccc(C(=O)Nc4ccccc4N)cc2)OCCCC[C@@H](C)O3)cc1`, the growth inhibition call is “inactive”.

As for `O=C(C[C@H]1CC[C@H]2[C@@H](COC[C@H](O)CN2C(=O)c2cnccn2)O1)NCc1ccc(Oc2ccccc2)cc1`, the growth inhibition call is “inactive”.

With `Cc1noc(C)c1S(=O)(=O)N(C)C[C@H]1Oc2ccc(NC(=O)Cc3ccccc3)cc2CC(=O)N([C@H](C)CO)C[C@H]1C`, the growth inhibition call was “inactive”.

`C[C@H]1CN([C@@H](C)CO)C(=O)CCCn2nncc2CO[C@H]1CN(C)C(=O)Nc1ccccc1C(F)(F)F`: the growth inhibition call was “inactive”.

As to `O=C(C[C@@H]1CC[C@@H]2[C@H](COC[C@H](O)CN2S(=O)(=O)c2ccc(Cl)cc2)O1)N[C@H]1CCN(Cc2ccccc2)C1`, the growth inhibition call was “inactive”.

For `CCCCCCO[C@@H](C)c1cccc(-c2csc(NC(=O)c3cc(Cl)c(/C=C(\C)C(=O)O)c(Cl)c3)n2)c1OC`, the growth inhibition call is “inactive”.

As for `C=CCN(C(=O)[C@H]1N(CCOCCO)C(=O)[C@H]2[C@H](C(=O)O)[C@@H]3C=C[C@@]21O3)C(C)(C)C`, the growth inhibition call was “inactive”.

As to `C[C@H](C(=O)O)N1C(=O)CCC1=O`, the growth inhibition call was “inactive”.

Regarding `O=C1CCc2cc(OCCCCc3nnnn3C3CCCCC3)ccc2N1`, the growth inhibition call was “inactive”.

For `C[C@@H]1CCCCO[C@@H](CN(C)Cc2ccc(Cl)c(Cl)c2)[C@@H](C)CN([C@@H](C)CO)C(=O)c2cc(NS(=O)(=O)c3ccccc3)ccc2O1`, the growth inhibition call was “inactive”.

As for `C[C@@H]1CN([C@H](C)CO)C(=O)c2cc(NS(=O)(=O)c3ccccc3)ccc2O[C@H]1CN(C)Cc1ccc(Oc2ccccc2)cc1`, the growth inhibition call was “inactive”.

With `C[C@@H]1CCCCO[C@@H](CN(C)C(=O)Cc2ccccc2)[C@H](C)CN([C@H](C)CO)C(=O)c2cc(NC(=O)CCC(F)(F)F)ccc2O1`, the growth inhibition call is “inactive”.

With `CNC[C@@H]1OCCCC[C@H](C)Oc2ccc(NS(=O)(=O)c3cn(C)cn3)cc2C(=O)N([C@@H](C)CO)C[C@H]1C`, the growth inhibition call was “inactive”.

Take `Cc1sc(Nc2ccccc2)nc1-c1ccc(Cl)cc1`: the growth inhibition call is “inactive”.

Turning to `C[C@@H]1CN([C@H](C)CO)C(=O)c2cccc(NC(=O)Nc3ccc(C(F)(F)F)cc3)c2O[C@H]1CN(C)S(=O)(=O)c1ccc(Cl)cc1`, the growth inhibition call is “inactive”.

Turning to `C=CCOC(=O)[C@@H]1[C@H]2C(=O)O[C@H](c3ccccc3)[C@H](c3ccccc3)N2[C@H](c2ccc(OCCOC(=O)[C@@H]3C[C@@H]4C(=O)N[C@@H](CCCCNC(C)=O)C(=O)N4[C@@H]3c3ccc(O)cc3)cc2)[C@@]12C(=O)Nc1ccccc12`, the growth inhibition call was “inactive”.

Regarding `Cn1cc(C(=O)NCc2cn3c(n2)CNCC3)cn1`, the growth inhibition call is “inactive”.

As to `Cn1cnc(S(=O)(=O)N[C@@H]2CC[C@@H](CC(=O)NCC3CC3)O[C@@H]2CO)c1`, the growth inhibition call was “inactive”.

With `CCc1nnc(SCC(=O)O)n1N`, the growth inhibition call was “inactive”.

Turning to `COc1ccc(NC(=O)Nc2ccc3c(c2)C(=O)N([C@@H](C)CO)C[C@@H](C)[C@H](CN(C)CC2CCCCC2)O3)cc1`, the growth inhibition call was “inactive”.

In the case of `C[C@@H]1CN([C@@H](C)CO)C(=O)Cc2cc(NC(=O)Cn3cnnn3)ccc2O[C@@H]1CN(C)CC1CC1`, the growth inhibition call was “inactive”.

With `Cc1ccc(S(=O)(=O)N(C)C[C@H]2Oc3ccc(NC(=O)CCN4CCOCC4)cc3C(=O)N([C@H](C)CO)C[C@@H]2C)cc1`, the growth inhibition call was “inactive”.

`C=CCOC(=O)[C@@H]1[C@H]2C(=O)O[C@H](c3ccccc3)[C@H](c3ccccc3)N2[C@H](c2ccc(OCCOC(=O)[C@H]3C[C@H]4C(=O)N[C@@H](CC(C)C)C(=O)N4[C@H]3c3ccc(O)cc3)cc2)[C@@]12C(=O)Nc1ccc(I)cc12`: the growth inhibition call is “inactive”.

With `C[C@@H]1CN([C@H](C)CO)C(=O)Cc2cc(NC(=O)Nc3ccc(C(F)(F)F)cc3)ccc2O[C@@H]1CN(C)S(C)(=O)=O`, the growth inhibition call is “inactive”.

With `COc1cc2c(cc1OC)CN(C(=O)[C@@H]1[C@H]3C(=O)O[C@H](c4ccccc4)[C@H](c4ccccc4)N3[C@H](c3ccccc3OCCO)[C@@]13C(=O)Nc1ccc(C#CC4(O)CCCCCC4)cc13)CC2`, the growth inhibition call was “inactive”.

As to `C[C@@H]1CCCCO[C@H](CN(C)C(=O)Nc2ccccc2)[C@@H](C)CN([C@H](C)CO)C(=O)c2cc(NC(=O)Nc3cccc4ccccc34)ccc2O1`, the growth inhibition call was “inactive”.

As for `Cc1noc(C)c1S(=O)(=O)Nc1ccc2c(c1)CC(=O)N([C@H](C)CO)C[C@H](C)[C@@H](CN(C)S(=O)(=O)c1c(C)noc1C)O2`, the growth inhibition call was “inactive”.

Consider `C[C@@H]1CN([C@H](C)CO)C(=O)c2cc(/C=C/c3ccccc3)cnc2O[C@@H]1CN(C)C(=O)C1CCOCC1`, for which the growth inhibition call was “inactive”.

As to `COc1cc2c3cc1Oc1cc(ccc1O)O[C@H]1c4c(cc(OC)c(O)c4Oc4ccc(cc4)C[C@@H]3N(C)CC2)CCN1C`, the growth inhibition call was “inactive”.

For the compound `CCCOc1ccc(S(=O)(=O)N2CCN(CCO)CC2)cc1-c1nc2c(CCC)cn(CC)c2c(=O)[nH]1`, the growth inhibition call was “inactive”.

With `C[C@H](CO)N1C[C@H](C)[C@H](CN(C)Cc2ccccc2)Oc2ccc(NC(=O)Cn3cnnn3)cc2CC1=O`, the growth inhibition call is “inactive”.
